Molecules are shown by their SMILES. Hit rate of the full screen: of about 39,000 compounds, about 220 (0.56%) showed activity. Some of the results follow.
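Note: static incubation at 37 °C against the wild-type strain, values averaged over two biological replicates.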

The subject of this test is Escherichia coli K-12 BW25113. The test is described as follows: relative growth (OD600 normalised to plate interquartile mean) (fraction); higher = less growth inhibition, active = 0.2 or less. The conditions noted are these: 50 µM; LB; incubation time: overnight (16-24 h).
As to `CO[C@@H]1CN(C)C(=O)c2ccc(NC(=O)Nc3ccccc3)cc2OC[C@@H](C)N(C(=O)CN(C)C)C[C@H]1C`, the relative growth is inactive: 0.996.

In the case of `Cc1noc(C)c1S(=O)(=O)N(C)C[C@H]1Oc2ccc(NC(=O)CCCN(C)C)cc2C(=O)N([C@@H](C)CO)C[C@H]1C`, the relative growth was inactive: 0.962.

For the compound `O=C(CN1CCOCC1)N[C@@H]1CC[C@@H](CCNC(=O)C2CCC2)O[C@H]1CO`, the relative growth is inactive: 1.01.

For the compound `C[C@H](CO)N1C[C@H](C)[C@@H](CN(C)Cc2ccc(Oc3ccccc3)cc2)Oc2c(NC(=O)C3CCCCC3)cccc2C1=O`, the relative growth is inactive: 1.01.

`CS(=O)(=O)N1CCCN(C(=O)CN2C(=O)COc3ccccc32)CC1`: the relative growth is inactive: 0.998.

For the compound `C[C@@H]1CN([C@H](C)CO)S(=O)(=O)c2ccc(-c3ccc(C(=O)N(C)C)cc3)cc2O[C@H]1CN(C)C(=O)C1CC1`, the relative growth was inactive: 0.988.

Consider `COc1ccc([C@H]2CC=CC[C@@H](C)Oc3ccccc3C(=O)N(C)[C@H](Cc3ccccc3)C(=O)N2)c(OC)c1`, for which the relative growth was inactive: 1.02.

Take `CS(=O)(=O)N1[C@@H]2c3ccc(-c4ccc(F)cc4)c(=O)n3C[C@H]1[C@H](CO)[C@H]2C(=O)N1CCOCC1`: the relative growth is inactive: 0.992.

With `Oc1cccc(O)c1O`, the relative growth was inactive: 0.878.

On to `Cc1noc(C)c1S(=O)(=O)N(C)C[C@@H]1OCc2cn(nn2)CCCC(=O)N([C@@H](C)CO)C[C@H]1C`, for which the relative growth is inactive: 1.02.

In the case of `Nc1ccc(C(=O)O)c(O)c1`, the relative growth is inactive: 0.99.

For `COCCNC(=O)C[C@H]1CC[C@@H]2[C@@H](COc3ccc(NS(=O)(=O)c4ccc(Cl)cc4)cc3C(=O)N2C)O1`, the relative growth is inactive: 1.01.

In the case of `Cc1noc(C)c1NC(=O)N(C)C[C@@H]1Oc2ncc(C#CCC(C)C)cc2C(=O)N([C@H](C)CO)C[C@@H]1C`, the relative growth is inactive: 0.975.

`CC(C)NC(=O)N(C)C[C@@H]1Oc2ccc(NC(=O)Nc3ccc4c(c3)OCO4)cc2C(=O)N([C@@H](C)CO)C[C@@H]1C`: the relative growth was inactive: 1.03.

Regarding `C[C@@H]1CN([C@H](C)CO)C(=O)c2cccc(NC(=O)Nc3ccccc3)c2O[C@@H]1CN(C)S(C)(=O)=O`, the relative growth is inactive: 0.964.

`COc1cccc(C#Cc2cnc3c(c2)C(=O)N([C@H](C)CO)C[C@@H](C)[C@@H](CN(C)C(=O)C2CCOCC2)O3)c1`: the relative growth was inactive: 1.

Turning to `C[C@H](CO)N1C[C@H](C)[C@H](CN(C)C(=O)Cc2cccnc2)Oc2ncc(C#Cc3ccccc3F)cc2C1=O`, the relative growth is inactive: 0.979.

Turning to `Cc1ccc(S(=O)(=O)N(C)C[C@@H]2Oc3ccc(NS(=O)(=O)c4ccc(F)cc4)cc3CC(=O)N([C@H](C)CO)C[C@H]2C)cc1`, the relative growth was inactive: 0.827.

Turning to `C[C@H]1CN([C@@H](C)CO)C(=O)c2cccc(NC(=O)Nc3ccc(F)cc3)c2O[C@@H]1CN(C)C(=O)Nc1cccc2ccccc12`, the relative growth was inactive: 0.98.

As to `COC(=O)C[C@@H]1CC[C@H]2[C@@H](COc3ccc(NS(=O)(=O)c4ccccc4Cl)cc3C(=O)N2C)O1`, the relative growth was inactive: 1.01.

Consider `CCCCC(O)c1ccccc1` (stereo unspecified), for which the relative growth was inactive: 0.973.

For `C[C@H](CO)N1C[C@H](C)[C@@H](CN(C)C(=O)NC2CCCCC2)Oc2ccc(NS(=O)(=O)c3cn(C)cn3)cc2CC1=O`, the relative growth was inactive: 1.

`O=C(C[C@@H]1CC[C@H]2[C@@H](COC[C@H](O)CN2C(=O)Nc2cccc(Cl)c2)O1)NCc1ccccc1F`: the relative growth was inactive: 0.957.

On to `CCCCCCCCCCCCCCCC(=O)OCC(O)C1OC(=O)C(O)=C1O` (stereo unspecified), for which the relative growth is inactive: 0.882.

For `COC(=O)[C@@H](N)c1cccc(OC)c1`, the relative growth was inactive: 0.992.

`COc1ccc(S(=O)(=O)Nc2ccc3c(c2)C(=O)N([C@@H](C)CO)C[C@H](C)[C@@H](CN(C)S(=O)(=O)c2ccc(F)cc2)O3)cc1`: the relative growth is inactive: 1.

As for `O=C(O)c1nc(-c2cnccn2)no1`, the relative growth was inactive: 1.02.

As to `CC1(C)OC(=O)C(OCC2CC2)=C1c1ccc(S(C)(=O)=O)cc1`, the relative growth was inactive: 0.971.

For `CCO/C(O)=C1/C(=O)CN(C)C1=O`, the relative growth is inactive: 0.962.

As to `Cc1ccc(S(=O)(=O)Nc2ccc3c(c2)C(=O)N([C@@H](C)CO)C[C@H](C)[C@H](CN(C)Cc2ccc(C(=O)O)cc2)OCCCC[C@@H](C)O3)cc1`, the relative growth was inactive: 1.

For `CC(=O)N[C@H](Cc1ccc2ccccc2c1)C(=O)N[C@H](Cc1ccc(Cl)cc1)C(=O)N[C@H](Cc1cccnc1)C(=O)N[C@@H](CO)C(=O)N[C@@H](Cc1ccc(O)cc1)C(=O)N[C@H](CCCNC(N)=O)C(=O)N[C@@H](CC(C)C)C(=O)N[C@@H](CCCNC(=N)N)C(=O)N1CCC[C@H]1C(=O)N[C@H](C)C(N)=O`, the relative growth is inactive: 0.976.

Consider `C[C@H](CO)N1C[C@H](C)[C@H](CN(C)Cc2ccccc2F)Oc2cc(C#CC3CC3)ccc2S1(=O)=O`, for which the relative growth was inactive: 0.916.

In the case of `C[C@@H]1CN([C@@H](C)CO)C(=O)c2cccc(NC(=O)Nc3ccccc3)c2O[C@H]1CN(C)C(=O)Nc1ccc(C(F)(F)F)cc1`, the relative growth is inactive: 0.986.

Take `O=c1cc(-c2ccccc2)oc2c(O)c(O)ccc12`: the relative growth is inactive: 0.954.

In the case of `C[C@H](CO)N1C[C@H](C)[C@@H](CN(C)C(=O)N[C@H](C)c2ccccc2)OCc2ccccc2-c2ccccc2C1=O`, the relative growth was inactive: 0.986.

For `CCCCOCCOCCOCc1cc2c(cc1CCC)OCO2`, the relative growth was inactive: 0.859.

As to `C[C@@H]1CCCCO[C@@H](CN(C)S(=O)(=O)c2cccs2)[C@H](C)CN([C@H](C)CO)C(=O)c2cc(NC(=O)Nc3ccc(C(F)(F)F)cc3)ccc2O1`, the relative growth is inactive: 1.07.

Regarding `CC(C)NC(=O)N(C)C[C@@H]1Oc2c(NS(=O)(=O)c3ccc(F)cc3)cccc2C(=O)N([C@H](C)CO)C[C@H]1C`, the relative growth is inactive: 1.

As for `C[C@@H]1CN([C@@H](C)CO)C(=O)c2cc(NC(=O)C3CCCCC3)ccc2O[C@@H](C)CCCCO[C@@H]1CN(C)C(=O)C1CCCCC1`, the relative growth was inactive: 0.966.

For `Cc1ccc(S(=O)(=O)N(C)C[C@H]2Oc3c(NC(=O)Nc4ccc(C(F)(F)F)cc4)cccc3C(=O)N([C@@H](C)CO)C[C@H]2C)cc1`, the relative growth was inactive: 1.02.

Consider `C=CCC[C@H](Cc1ccc(F)cc1)C(=O)OC[C@@H](Cc1c[nH]c2ccccc12)NC(=O)[C@H](CC=C)CC(=O)N[C@@H](CO)Cc1ccccc1`, for which the relative growth is inactive: 1.03.
